Test results reported in publication PMC4336329 (PLoS ONE, 2015).
About 14,000 (4.5%) of roughly 310,000 compounds showed an effect of 50% or more. Effects have a minus sign here. This is one part of the list.

Target: human ether-à-go-go-related gene (hERG) potassium channel (human, UniProt Q12809)
Test: primary screen, population patch clamp on CHO cells stably expressing hERG
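Note: peak tail current of the secondary pulse compared with the same well before compound.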

Chain of human ether-à-go-go-related gene (hERG) potassium channel (Q12809 whole entry, looked up): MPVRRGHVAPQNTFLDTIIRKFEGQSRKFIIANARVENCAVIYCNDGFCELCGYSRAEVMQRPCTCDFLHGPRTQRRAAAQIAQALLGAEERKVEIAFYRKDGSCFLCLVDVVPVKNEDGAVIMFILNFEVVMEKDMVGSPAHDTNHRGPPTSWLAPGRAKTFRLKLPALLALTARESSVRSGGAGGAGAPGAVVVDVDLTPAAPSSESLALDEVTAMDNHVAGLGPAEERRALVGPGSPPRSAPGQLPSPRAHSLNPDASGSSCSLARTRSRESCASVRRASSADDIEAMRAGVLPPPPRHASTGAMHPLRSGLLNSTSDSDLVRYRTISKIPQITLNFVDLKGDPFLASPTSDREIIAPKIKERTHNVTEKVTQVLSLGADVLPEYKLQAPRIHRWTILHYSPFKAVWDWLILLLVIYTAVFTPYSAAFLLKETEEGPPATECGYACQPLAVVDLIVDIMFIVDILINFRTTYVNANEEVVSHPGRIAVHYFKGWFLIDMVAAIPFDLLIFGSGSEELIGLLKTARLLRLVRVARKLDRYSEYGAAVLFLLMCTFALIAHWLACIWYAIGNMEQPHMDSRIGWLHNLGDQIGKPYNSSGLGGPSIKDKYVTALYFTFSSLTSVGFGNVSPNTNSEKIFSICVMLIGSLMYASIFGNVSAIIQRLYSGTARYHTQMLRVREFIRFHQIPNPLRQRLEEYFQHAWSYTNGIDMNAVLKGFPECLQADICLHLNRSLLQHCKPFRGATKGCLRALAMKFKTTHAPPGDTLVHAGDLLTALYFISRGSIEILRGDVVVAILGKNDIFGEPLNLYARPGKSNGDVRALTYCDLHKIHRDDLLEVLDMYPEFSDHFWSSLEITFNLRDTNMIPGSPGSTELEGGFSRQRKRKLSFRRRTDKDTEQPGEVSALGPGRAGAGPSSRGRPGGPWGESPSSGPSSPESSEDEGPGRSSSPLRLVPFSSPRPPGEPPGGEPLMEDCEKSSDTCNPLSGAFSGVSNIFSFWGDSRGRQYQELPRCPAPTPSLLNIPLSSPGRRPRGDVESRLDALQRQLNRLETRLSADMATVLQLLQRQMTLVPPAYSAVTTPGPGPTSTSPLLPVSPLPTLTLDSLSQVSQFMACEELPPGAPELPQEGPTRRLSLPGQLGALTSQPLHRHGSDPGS

Row | Compound | hERG current change (%, negative = inhibition) at 10uM [%]
1 | CC(C)CC(NC(=O)c1ccccc1)C(=O)OCC(=O)Nc1ccc(Br)cn1 (centres unmarked) | -1.01
2 | CCOc1ccccc1CNc1nc2nc3c(c(=O)n2[nH]1)CCC3 | 19.6
3 | CCOC(=O)c1ccc(NC(=O)c2nc[nH]c2C(=O)NC2CCN(C(=O)OC(C)(C)C)CC2)cc1 | 4.44
4 | CCOc1cc2[nH]c(=S)n(CCC(=O)NCc3ccco3)c(=O)c2cc1OCC | 23.6
5 | COc1ccc(-c2ccc(CCC(=O)O)o2)cc1 | -0.707
6 | CCCCc1nnc(NC(=O)c2cccc(S(=O)(=O)N3CCN(C)CC3)c2)s1 | 14.7
7 | O=C(CCSc1ccccc1)Nc1ccccc1Br | -13.2
8 | CC(C)(C)N1CC23CCC(C[C@@H]2C1=O)O3 (some centres unmarked) | 7.02
9 | COC(=O)C1=NN[C@H](C(=O)OC(C)(C)C)[C@H]1c1ccccc1 | -6.12
10 | OCC[C@@H]1C[C@H](O)[C@@H](O)[C@@]2(OCCCc3ccccc32)O1 | 15
11 | CC1(C)CC(N2CCCC2)=CC(=[N+]2CCCCC2)C1.[I-] | 3.58
12 | O=C(Nc1nnc(SCC(=O)N2CCCC2)s1)C1CC(=O)N(c2ccc(F)cc2)C1 (centres unmarked) | 24
13 | C=CCC(NC(C)c1ccccc1)c1ccco1 (centres unmarked) | -6.84
14 | CCOCCCNC(=S)N1C2CCC1CC(NC(=O)NC13CC4CC(CC(C4)C1)C3)C2 (centres unmarked) | -8.16
15 | CCCNCc1cc(OC)c(OCc2ccccc2)cc1Br.Cl | -28.2
16 | Cc1ccc2nc(N3CCN(C)CC3)[nH]c2c1.Cl | 8.48
17 | Cc1ccccc1NC(=O)/C=C1\SC(=O)NC1=O | 17.5
18 | Cc1nc(N2CCOCC2)c2cc(-c3ccccc3)sc2n1 | -3.14
19 | CCCCN(CCCC)CCNC(=O)c1cn(CC)c2ccc(S(=O)(=O)N3CCc4ccccc4C3)cc2c1=O | -78.8
20 | CCOc1cccc2sc(Cl)nc12 | 13.7
21 | COCCN(C(=O)c1oc2ccccc2c1COC)c1c(N)n(CC(C)C)c(=O)[nH]c1=O | 1.71
22 | CC(C)CN(C(=O)c1ccc(S(=O)(=O)N2CCCC2)cc1)C1CCS(=O)(=O)C1 (centres unmarked) | -3.52

Row | Compound | hERG current change (%, negative = inhibition) at 10uM [%]
23 | CCOCC(=O)Nc1ccc(S(=O)(=O)N2CCOCC2)cc1 | 13.5
24 | CSc1cccc(NC(=O)c2ccc(NC3=NC4CS(=O)(=O)CC4S3)cc2)c1 (centres unmarked) | 13.5
25 | CN1CCN(C(=O)C2=C[C@H](C3CC3)C[C@H](OCc3ccc(CO)cc3)O2)CC1 | -1.42
26 | CCOc1ccccc1NC(=O)CSc1n[nH]c(N)n1 | 13.9
27 | Cc1ccc(-n2c(SCC(=O)Nc3cc(C)on3)nc3c(c2=O)SC(C)C3)cc1 (centres unmarked) | -24.8
28 | CCCCC(CC)C(=O)Nc1cc(C(=O)NCc2ccc(C)cc2)ccc1N1CCC2(CC1)CC(c1cccc(Br)c1)=NO2 (centres unmarked) | 17.6
29 | O=C(COc1ccc(Cl)cc1)NCc1n[nH]c(=O)c2ccccc12 | -13
30 | CC(C)(C)n1nc2c(c1NC(=O)c1ccc([N+](=O)[O-])cc1)CS(=O)(=O)C2 | -34.2
31 | O=[N+]([O-])c1ccc(Sc2ncc3ccccn23)nc1 | -51.6
32 | Cn1c(SCC(=O)N2CCc3ccccc3C2)nnc1-c1ccncc1 | -28.5
33 | Cc1ccc(C(=O)N/C(=C/c2cccnc2)C(=O)O)cc1 | 8.41
34 | O=C(CNC(=O)c1ccc(-c2ccccc2)cc1)Nc1ccc(S(=O)(=O)Nc2ncccn2)cc1 | 4.04
35 | CCCCC(=O)NN(C)c1nc(-c2ccccc2)nnc1C(F)(F)F | 9.7
36 | CSc1ccccc1NC(=O)CN(C1CCCCC1)S(C)(=O)=O | -1.49
37 | COc1ccc(C(=O)ON=C2CCN(c3ccc([N+](=O)[O-])cc3)CC2)cc1 | -68.5
38 | COc1cccc(CC(=O)OC(C)C(=O)Nc2ncc(Cl)cc2Cl)c1 (centres unmarked) | -5
39 | CC(C)[C@H](NS(=O)(=O)c1ccccc1)C(=O)OCC(=O)Nc1ccc2c(c1)OCO2 | -22.1
40 | O=C(Cc1cccs1)NCc1ccccc1F | -3
41 | Cn1c(C(=O)N2COCC2(C)C)cc2c(=O)n3ccccc3nc21 | -1.15
42 | N#Cc1c(-c2ccccc2)nc(N2CCN(Cc3ccccc3)CC2)[nH]c1=O | 13.6
43 | CCn1cc([N+](=O)[O-])c(C(=O)N2N=C(c3ccc4ccccc4c3)CC2c2ccccc2O)n1 (centres unmarked) | 3.19
44 | Cc1nnc(SCC(=O)NCc2cccs2)n1-c1ccccc1 | 1.68

Row | Compound | hERG current change (%, negative = inhibition) at 10uM [%]
45 | O=S(=O)(c1ccc(F)cc1)N1CN2CCN(C2)C1 | 7.75
46 | Nc1ccccc1-c1ccccc1N | 15.2
47 | COc1ccc(NC(=O)CCN2C(=O)c3cccc([N+](=O)[O-])c3C2=O)cc1 | -5.08
48 | C/C(=N\Nc1ccc(C(=O)O)cc1)c1ccc(Br)cc1.O=S(=O)(O)O | 23
49 | O=C(Nc1nccs1)c1cc(-c2ccncc2)nc2ccccc12 | 1.89
50 | CSC1=NCCN1C(=O)c1ccc(S(=O)(=O)N2CCCC2)cc1 | 10.1
51 | COc1ccccc1NC(=O)COc1ccc(/C=N/NC(=O)CSCc2cc(C)cc(C)c2)cc1 | 3.56
52 | Cc1ccccc1C(=O)NNC(=O)CCC(=O)Nc1cccc(Cl)c1C | -18.3
53 | COCCN(Cc1nc(C2(c3ccc(C)cc3)CCCC2)no1)C(C)C | 0.613
54 | Cn1c(=O)c(-c2ccccc2)c(O)c2ccccc21 | 1.91
55 | CCN1CCN(CC(=O)N2N=C(c3ccc(OC)cc3)CC2c2ccc(OC)cc2)C(=O)C1=O (centres unmarked) | 3.87
56 | COc1cc(-c2cc(N)n(S(=O)(=O)c3ccccc3)n2)cc(OC)c1OC | 7.46
57 | CCCC(C)n1[nH]c(=O)c2c1NC(=O)CSC2c1ccc(OC)cc1 (centres unmarked) | 1.91
58 | COc1cccc(C(=O)NNC(=O)c2ccc(NS(=O)(=O)c3cccs3)cc2)c1OC | 0.566
59 | CCCc1cc(=O)[nH]c(SCc2cccc(C)c2)n1 | 7.44
60 | COc1cc(C(=O)O[C@H]2CC(C)=CC[C@@]3(C)CC[C@@](O)(C(C)C)[C@H]23)ccc1O | 14.4
61 | COc1cc(SC)ccc1C(=O)N(C)Cc1ccccc1 | -17.5
62 | Oc1ccc2c(c1)c1c3n2CCNC3CCC1 (centres unmarked) | -8.45
63 | Cc1ccc(-c2nn(-c3ccccc3)cc2C(=O)Nc2ccc(C(=O)O)cc2)cc1 | 19.1
64 | COC(=O)C1=C(C)Nc2nc3ccccc3n2C1c1cc(OC)c(OC)c(OC)c1 (centres unmarked) | 1.96
65 | CCOC(=O)C1CCN(C(=O)Nc2cc(Cl)cc(Cl)c2)CC1 | -15.7
66 | CC(=O)c1ccc(NC(=O)Nc2cccc(Cl)c2)cc1 | 12.2

Row | Compound | hERG current change (%, negative = inhibition) at 10uM [%]
67 | O=C(NCC(=O)N1CCN(S(=O)(=O)c2ccc3c(c2)OCCO3)CC1)c1ccccc1Cl | 11.7
68 | Cc1nn(CCO)c(N)c1C1(O)C(=O)Nc2c(Cl)cc(Cl)cc21 (centres unmarked) | 17.8
69 | CC(C)N1CCc2c(sc(NC(=O)c3ccc4ccccc4c3)c2C(N)=O)C1.Cl | -3.95
70 | O=C(CCN1C(=O)c2ccccc2C1=O)NNC(=O)c1ccc(Cl)cc1Cl | 6.82
71 | Cc1cc(C(F)(F)F)nc(Nc2nc(C)c3ccccc3n2)n1 | 6.9
72 | Cn1c(Cc2cccs2)nnc1SC/C=C/c1ccccc1 | -0.882
73 | CCOc1ccc(N2C(=O)CC(NCCNc3ccc(C(=O)c4cccs4)cc3)C2=O)cc1 (centres unmarked) | -71.5
74 | Cn1c(C(=O)N2CCOCC2)cc2c(=O)n3ccccc3nc21 | 10.3
75 | COc1ccc(Nc2nc(N3CCCC3)nc(N3CCCC3)n2)c(OC)c1 | 2.29
76 | Cc1nn(C)c(C)c1C(C)NC(=O)c1ccc(OC2CCN(Cc3ccccn3)CC2)cc1 (centres unmarked) | 18
77 | NNC(=O)c1ccc(Cn2cc(Br)cn2)cc1 | -2.07
78 | C=CCc1cccc2cc(C(=O)Nc3cccc(C(=O)O)c3)c(=O)oc12 | -5.14
79 | CC(=O)Nc1ccc(Nc2nc(-c3sc(C)nc3C)cs2)cc1 | 13.5
80 | O=C1C(NS(=O)(=O)c2ccc(Br)cc2)=C(N2CCCCC2)C(=O)c2ccccc21 | -33.1
81 | CCOC(=O)C1CCN(C(=O)c2cc(COc3ccc(OC)c4ccccc34)on2)CC1 | 4
82 | CN(C)c1ccc(P(=O)(OC2CCCCC2)C(O)c2ccccn2)cc1 (centres unmarked) | -0.561
83 | Cn1c(=O)c2c(ncn2CC(=O)NC(C)(C)C)n(C)c1=O | 9.95
84 | COc1cc(C(=O)N/N=C/c2ccc(OC(=O)c3cccc(C)c3)cc2)ccc1O | 11.8
85 | O=C(Nc1ccc(Br)cc1)c1ccc(N2C(=O)C3CC=C(Cl)CC3C2=O)cc1 (centres unmarked) | 5.08
86 | COCCCN(C(=O)c1ccc(N2CCCC2=O)cc1)c1c(N)n(Cc2ccccc2)c(=O)[nH]c1=O | -1.8
